The results in this text go back to patent US20240173425A1, “HUMAN CD33 ANTIBODIES AND GLUCOCORTICOID CONJUGATES” (Eli Lilly and Company, priority 2022, published 2024).

For data set [1], the system named is cynomolgus monkey CD33 ECD 18-232-His. Briefly: Binding affinity and kinetics by surface plasmon resonance (Biacore 8K). The following applies: for ka / kd: cynomolgus monkey CD33 ECD, 37° C., 1:1 binding model. The procedure: (§1) The affinity and binding kinetics of the exemplified anti-human CD33 antibodies to human and cynomolgus monkey CD33 ECD 18-232-His proteins was determined by surface plasmon resonance using Biacore 8K (GE Healthcare). Briefly, per the Instrument Handbook the antibody was captured on a Biacore Protein A chip followed by flowing CD33 ECD from 200 nM down to 0.782 nM in 2-fold serial dilution in PBS-P20-BSA (0.005% surfactant P20, 0.1 mg/mL BSA). All measurements were carried out at 37° C. Multi-cycle kinetics setting that ran each analyte concentration in a separate cycle regenerating the surface after each sample injection was used. The regeneration was optimized to maintain consistent surface properties from cycle to cycle. Each cycle started with a 3 minute injection of 0.1 μg/mL of the antibody at 10 μl/min flow rate, followed by 3 min injection of antigen at 50 μl/min flow rate and a 15 min dissociation phase in PBS-P20-BSA. The chip surface was then regenerated with 30 seconds injection of pH 1.5, 10 mM glycine buffer at 50 μl/min flow rate three times. The data was fit to a 1:1 binding model to derive ka and kd, and to calculate KD.
On the technique in general: SPR reads the build-up and loss of mass on a sensor chip optically.

For data set [2], the target named is T1, human CD33 ECD 18-232-His (Homo sapiens, UniProt P20138).
T1 construct: CD33 ECD 18-232-His proteins
The data set is described as above. The note with it: 37° C., 1:1 binding model. Here is the method:
as §1

The target in data set [3] is T2, CD33 on human monocytes (Homo sapiens, UniProt P20138).
T2 construct: endogenous in cells; host or cells: primary human PBMCs / monocytes from donor blood
Description: CD33 cell surface receptor availability post-internalization. It counts as cell-based. The note with it: antibody 30 μg/mL. The procedure: CD33 cell surface receptor availability on monocytes after internalization upon binding to the exemplified anti-human CD33 antibodies was evaluated. Briefly, human monocytes isolated from PBMC were seeded at 2×10^4 cells/well in a 96-well plate and incubated on ice for 60 minutes to impede internalization. Exemplified anti-human CD33 antibodies (30 μg/mL) were added to the cells and allowed to bind for 30 minutes on ice. 100 μL culture media was then added to the cells and plates were placed in the incubator for 3.5, 24, 48, 72, and 96-hour timepoints at 37° C. The baseline samples were stained immediately representing the exemplified anti-human CD33 antibody surface binding before internalization. Cells were Fc blocked for 20 minutes, then stained with Alexa Fluor-647 labeled anti-human CD33 exemplified antibodies, Alexa Fluor-700 anti-human CD45 (HI30) and Brilliant Violet-605 anti-human CD11b (ICRF44) for 30 minutes on ice. Cells were analyzed by flow cytometry.

Data set [4] can be described thus: Aggregation from cell culture and titer after Protein A purification. It counts as physicochemical. The following applies: transient expression in CHO cells. The procedure:
(§2) Aggregation from cell culture: The exemplified anti-human CD33 antibodies were transiently expressed in CHO cells. […] The viscosity for each was measured using VROC® initium (RheoSense) at 15° C. using the average of 9 replicate measurements. […] Concentrated samples were incubated for a period of 4 weeks at 5° C. and 35° C., respectively. Following incubation, samples were analyzed for the percentage of high molecular weight (% HMW) species with size exclusion chromatography (SEC).

Another data set in a line: Viscosity (VROC initium). The following applies: about 125 mg/mL, 5 mM histidine pH 6, 15° C. It counts as physicochemical. Here is the method:
as §2

Data set [5] can be described thus: Thermal stability by Differential Scanning Calorimetry. Type of data set: physicochemical. The note with it: DSC, PBS, pH 7.2. Here is the method: as §2
Data set [6] concerns the target T2, CD33 on human monocytes. Description: Cell surface binding potency, FACS assay. Type of data set: cell-based. The note with it: human PBMCs, 4° C. for 30 mins. The procedure:
Human PBMCs were isolated from human blood samples by standard Ficoll-Paque™ plus (GE […]) density gradient centrifugation methods. Freshly isolated cells PBMCs were resuspended at 2×10^6 cells/mL and allowed to rest for 15 minutes at room temperature, then plated at 100 μL/well into a round bottom 96-well plate (COSTAR®) and washed with FACS buffer (PBS containing 2% fetal bovine serum from Corning®). Exemplified anti-human CD33 antibodies and the respective control IgG antibodies conjugated to Alexa Fluor® 647 according to manufacturer's protocol (Thermo Fisher Scientific) were added to the wells and diluted 4-fold in duplicate. Equivalent volume of 2× antibody cocktail containing: PE-Cy5 anti-human CD14 Antibody (clone M5E2), Per-CP anti-human CD45 Antibody (clone H130), FITC anti-human CD11b (clone ICRF44), and Alexa Fluor-647 anti-human CD66b (G10F5) was then added to the wells. Cells were incubated at 4° C. for 30 mins, washed twice with FACS buffer and resuspended in a final volume of 100 μl FACS buffer. Viability dye, Live/Dead Yellow (Thermo Fisher Scientific, L34968), was added and the samples were analyzed via a flow cytometer (LSRFortessa™ X-20; BD BIOSCIENCES). Data analysis was performed using FlowJo software and statistical analysis was performed using GraphPad Prism 9. Data represents the mean fluorescence intensity (MFI) of CD33 expressing cells from monocytes or neutrophils.

Data set [7] in a line: Aggregation upon temperature stress (SEC). The following applies: about 100 mg/mL, 5 mM histidine pH 6.0, SEC. It counts as physicochemical. The procedure: as §2

T1 sequence (P20138 18-232): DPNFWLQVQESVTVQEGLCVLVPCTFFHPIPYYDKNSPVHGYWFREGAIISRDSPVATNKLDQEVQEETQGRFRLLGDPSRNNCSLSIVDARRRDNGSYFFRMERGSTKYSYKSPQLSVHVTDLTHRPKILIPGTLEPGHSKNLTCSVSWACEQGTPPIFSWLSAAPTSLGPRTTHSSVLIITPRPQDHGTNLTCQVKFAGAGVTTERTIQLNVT
T2 sequence (P20138 18-364): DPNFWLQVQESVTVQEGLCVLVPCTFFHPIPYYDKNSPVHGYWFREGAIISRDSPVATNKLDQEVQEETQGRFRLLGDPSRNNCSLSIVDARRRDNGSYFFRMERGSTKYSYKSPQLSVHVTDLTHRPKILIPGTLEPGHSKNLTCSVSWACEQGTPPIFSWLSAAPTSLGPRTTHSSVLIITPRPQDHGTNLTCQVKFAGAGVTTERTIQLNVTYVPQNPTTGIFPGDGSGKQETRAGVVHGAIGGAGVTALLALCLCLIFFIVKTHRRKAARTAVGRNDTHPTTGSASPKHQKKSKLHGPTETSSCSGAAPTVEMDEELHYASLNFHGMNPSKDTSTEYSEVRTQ

B1: Ab1: anti-human CD33 antibody, HC SEQ ID NO: 21 and LC SEQ ID NO: 22, IgG1AAA backbone (antibody)
heavy: [about 100 residues not printed]EYSNYDYWGQGTLVTVSSASTKGPCVFPLAPSSKSTSGGTAALGCLVKDYFPEPVTVSWNSGALTSGVHTFPAVLQSSGLYSLSSVVTVPSSSLGTQTYICNVNHKPSNTKVDKRVEPKSCDKTHTCPPCPAPEAAGGPSVFLFPPKPKDTLMISRTPEVTCVVVDVSHEDPEVKFNWYVDGVEVHNAKTKPREEQYNSTYRVVSVLTVLHQDWLNGKEYKCKVSNKALAAPIEKTISKAKGQPREPQVYTLPPSREEMTKNQVSLTCLVKGFYPSDICVEWESNGQPENNYKTTPPVLDSDGSFFLYSKLTVDKSRWQQGNVFSCSVMHEALHNHYTQKSLSLSPGK
light: DIQMTQSPSSLSASVGDRVTITCQASQDVFRYLNWYQQKPGKAPKLLIYDASNLQTGVPSRFSGSGSGTDFTFTISSLQPEDIATYYCQQYEDLPTFGPGTKVDIKRTVAAPSVFIFPPSDEQLKSGTASVVCLLNNFYPREAKVQWKVDNALQSGNSQESVTEQDSKDSTYSLSSTLTLSKADYEKHKVYACEVTHQGLSSPVTKSFNRGEC
Take B1: the ka in data set [1] amounted to 2550 M⁻¹ s⁻¹; in data set [2], 346000 M⁻¹ s⁻¹. Also, the kd in data set [1] is 0.0615 s⁻¹; in data set [2], 118000 s⁻¹. Further, binding in data set [1] (unit inferred) was characterised by a dissociation constant (Kd) of 24.1 µM. Also, the “% cell surface CD33 positive cells post internalization” value in the data set with CD33 on human monocytes [3] (3.5 hours) is given as 1.06 ± 0.339%; with CD33 on human monocytes [3] (24 hours), 1.935 ± 0.884%; with CD33 on human monocytes [3] (48 hours) it was 9.195 ± 1.260%; with CD33 on human monocytes [3] (72 hours), 14.185 ± 1.335%; with CD33 on human monocytes [3] (96 hours), 31.9 ± 2.183%; with CD33 on human monocytes [3] (Baseline), 1.1 ± 0.481%. For the same molecule, in data set [4], the “% HMW species after Protein A chromatography” value was 2.67%. In data set [4], this molecule yielded a sCHO titer of 1.7 g/L. Besides, the Viscosity in “Viscosity (VROC initium)” is given as 5.5 cP. Moreover, in data set [5], the Tm2 stood at 79 °C.

B2: Ab3: anti-human CD33 antibody, HC SEQ ID NO: 9 and LC SEQ ID NO: 15, IgG1AAA backbone (antibody)
heavy: [about 100 residues not printed]TYSNYDYWGQGTLVTVSSASTKGPCVFPLAPSSKSTSGGTAALGCLVKDYFPEPVTVSWNSGALTSGVHTFPAVLQSSGLYSLSSVVTVPSSSLGTQTYICNVNHKPSNTKVDKRVEPKSCDKTHTCPPCPAPEAAGGPSVFLFPPKPKDTLMISRTPEVTCVVVDVSHEDPEVKFNWYVDGVEVHNAKTKPREEQYNSTYRVVSVLTVLHQDWLNGKEYKCKVSNKALAAPIEKTISKAKGQPREPQVYTLPPSREEMTKNQVSLTCLVKGFYPSDICVEWESNGQPENNYKTTPPVLDSDGSFFLYSKLTVDKSRWQQGNVFSCSVMHEALHNHYTQKSLSLSPGK
light: DIQMTQSPSSLSASVGDRVTITCQASQPTYIYLNWYQQKPGKAPKLLIYDASNLQTGVPSRFSGSGSGTDFTFTISSLQPEDIATYYCQQYEDLPTFGPGTKVDIKRTVAAPSVFIFPPSDEQLKSGTASVVCLLNNFYPREAKVQWKVDNALQSGNSQESVTEQDSKDSTYSLSSTLTLSKADYEKHKVYACEVTHQGLSSPVTKSFNRGEC
In data set [1], B2 displayed a ka of 1.34e+06 M⁻¹ s⁻¹ and a kd of 0.00108 s⁻¹. In data set [2], this molecule showed a ka of 570000 M⁻¹ s⁻¹ and a kd of 0.000486 s⁻¹. In the data set with CD33 on human monocytes [6], the “binding to cell surface CD33 on human monocytes” value is “binding of Ab3 to the monocyte cell surface”. Further, in data set [4], the “% HMW species after Protein A chromatography” value came to 1.39% and the sCHO titer came to 4.6 g/L. Further, the Viscosity in “Viscosity (VROC initium)” is listed as 7.7 cP. In data set [5], the Tm1 is 70.93 °C, the Tm2 was determined as 79.68 °C and the Tonset was 64.6 °C. Besides, in data set [7], the “% HMW after 4-week incubation at 5° C.” value was below 0.1% and the “% HMW after 4-week incubation at 35° C.” value is recorded as 1.58%.
